Measurements from the supplement of paper PMC11417369.
Some of the results follow.

Tested on: PfHDP1 homeodomain (GST-tagged)
Assay: gcPBM binding intensity (ln(normalized median fluorescence intensity)); higher = stronger DNA binding
Method in brief: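 Probes on an Agilent 4 × 180k array were primer-extended, double-stranded and 36 bp long, taken from intergenic genomic regions, with negative controls added. GST-tagged P. falciparum DNA-binding domains from E. coli, about 25 μg on average, were applied to the array for 1 h in 1× PBS containing 1% milk, 0.2 mg/ml BSA, 0.5% salmon testes DNA and 0.03% Triton X-100. Binding intensity, obtained after Alexa488 anti-GST antibody detection and a 488 nm scan, is the highest Masliner-normalised natural-log median intensity across replicate spots of either probe orientation.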

Sequence	gcPBM binding intensity (ln)
TTTTTTACAACACGAAAATGAACAATTATAATAAAT [TGCATGCA_negctrl_site301]	6.77
TCACATACATTACTTACACACCATATTAAGATATAC [CACACA_site4415]	6.93
TTTTGTATATATTATTGTACTTTTAATATAGATCGT [XGTACX_site5830]	6.5
AAATAAATATATAATACACACAAAAATATAAAATGT [CACACA_site3711]	7
TAATCATAAAAAAATACACACATATAAAATATAGAT [CACACA_site7020]	6.47
AAAAGTTAAGCAACAAATTTTATTTCTTATATATAA [TGCATGCA_negctrl_site134]	6.59
ATATTTATAAATTGCACACAAATAATAACATTATAT [CACACA_site5322]	10.6
TCATTCCATACTTTAACACACAAATATATTTAATCC [CACACA_site145]	6.82
ATATATATATATATATGTACATATTCACTTATATTT [XGTACX_site5324]	9.45
TTTTTTTTTTTGTTTTGTACATAAATTGCAACCAAT [XGTACX_site8949]	8
TAACATAAATCCATACGTACCTATATATATATAATA [XGTACX_site2626]	6.58
ATTTATATTAAAAGTGTGCACTTTTTTTTTTTTTTT	8.1
GAATATTACATGTATTGTACAGGTAATGTTAAAAAT [XGTACX_site8274]	6.55
AAAAAAAAAAAAAAAACACACATATATATTATTGTA [CACACA_site3979]	6.59
TTTTTTGTATTTTTCACACACTCTCTATCTCTCTCA [CACACA_site2095]	6.66
TGTAGACTACATAGTAGTACATAATATATACATATA [XGTACX_site367]	6.21
TTTTCTTTTAAACATATATATATATATATATATATA [XGTACX_negctrl_site559]	9.52
TATTTATTTAATTACACACGAACATATAACCATTTC [CACACA_site211]	6.81
TATATATATATAATTACACACAATGTTCTATATATA [CACACA_site3235]	8.86
ATTTCTTTGCTTTTCAAACACACAAAAGTTATTATA [CACACA_site520]	6.83
GTTGAAAAAAAAAATGCACACGCATACATATAATAT [CACACA_site8117]	9.09
ATAATTTTCCATATTTGTACATATTTTTTTCCCTTG [XGTACX_site8146]	6.87
TAATGACTGAAAAATTGTACATATGTATATATGTAT [XGTACX_site2415]	6.09

Sequence	gcPBM binding intensity (ln)
ATTCTATTATAATATTCACACACTAACGTAAATCAT [CACACA_site2750]	6.73
TATACATACATACATACACACACACCGATATATATA [CACACA_site7896]	7.14
CATACATACGGACACACACACATATATATATATATA [CACACA_site5598]	9.34
ATAATGTTTCTTTCAACACACAAAAAATGAACACAT [CACACA_site1552]	6.93
AAAAAAGAAAAAAGGACACACATAAATATACTCACG [CACACA_site2904]	6.48
AAAAAAAAAAAATAGACCTCCTAAGCAAAAGAAAAA [GTGCAC_negctrl_site634]	5.91
TATATAAGCGCATGCACACGCAAAGGTATATAAATA [CACACA_site622]	8.78
AATTTAAATTAGAATTGTACTAGAAAAGGAATATAT [XGTACX_site6162]	6.59
AATATAAATAAAAACACACACAATGGTACAGATATA [CACACA_site5930]	7.05
AATTATATAATCTTATAACATAATATAATAACATTT [CACACA_negctrl_site187]	6.22
TAAAAAATATTATATACACACAGTATAAAAAAAAAT [CACACA_site4012]	6.5
TTATCCTATACAAGGGAAAAATAAAATAAAATAAAT [TGCATGCA_negctrl_site272]	6.47
AGTGTCATATAAAATTGTACTTTTTTTTTTTTCTTT [XGTACX_site5651]	6.38
ATATACATATTATAATGTACATATTTTAATAACCTT [XGTACX_site7617]	6.39
ATTGATTATTTTCTAGTGCATAAAATAATTTTTTTT	8.67
TATTTATTTGTTTAAGGTACAGAACAAATTTTTATT [XGTACX_site7414]	6.22
ATATTTATTATTATATGTACGTAACATCTTTATAAA [XGTACX_site7016]	6.95
CATAAATACATACATACACACATATATATATATATA [CACACA_site2106]	9.32
AAATGTTCTTAAAAATGAATAATATATATATATATA [CACACA_negctrl_site796]	9.08
TAAGAAAGACAAAAAAAATGAAAAGAAAAAAAATGA [CACACA_negctrl_site1469]	6.15
AAATGTTGAAAAATATGTACATATTATATATATTAT [XGTACX_site1165]	6.53
ATTTAGAAAAAATATACACACAGCCTAAACATGCAT [CACACA_site4067]	6.48
AATATAAGCAAATACACACACACATATATATATATA [CACACA_site3805]	9.22

Sequence	gcPBM binding intensity (ln)
TTTTAATTTATTTATGCACACATATATAATTACACA [CACACA_site8126]	10.1
AAAAATAAACAATATATAGTTATATATATATATATA [TGCATGCA_negctrl_site82]	9.34
ATTATATATATGTGCACACAAAAGATATATATATAT [CACACA_site5205]	11.1
ATATTTATTTGTTAGTGTACATACATATATATATAT [XGTACX_site1347]	9.11
AAATAATTTACTTAATGTACATATATATATATATAT [XGTACX_site8594]	9.2
ATGTATGTTTGTTATGCACACAAATGCATCTTATTT [CACACA_site8861]	10.3
ATTATGTATACATAAACACACATATATATAAAAAAA [CACACA_site262]	7.09
AAGCACAAAAAATACACACACAAAAAATAAAAAAAG [CACACA_site1840]	6.82
TATATATATCTGTACACACACACATATAAATAAATA [CACACA_site4405]	6.97
GAGAAATGGGGACACACACACATATTATATATATAT [CACACA_site4943]	8.53
ATATAAATATATGTATGTACGCATGTATGTATCTAT [XGTACX_site3290]	6.65
TATATGCATAATAACTGTACACAAATTGGGGTTGAT [XGTACX_site459]	7.32
TTATTCTGACAGAATTGTACTAATGTCTTTAAAAAA [XGTACX_site1256]	6.19
TGTGCCTATAAATTAACACACAGAAATATATAGAGA [CACACA_site818]	6.57
TATTTGTTTGTTCGGGTGCTTACATATATTCTTATA [GTGCAC_site9972]	7.08
TTAATTAGAAATCATACACACATATAAATAAATATA [CACACA_site6225]	6.47
AAATTAAGTATATATTGTACACATAATATGATTGTA [XGTACX_site3083]	6.19
TTATTTTCATATAGGTGTACATAAAAATATTCTTAT [XGTACX_site8861]	6.46
TAAGTTTATTGAAATTGTACAAACATAAATGTAAAA [XGTACX_site162]	6.75
TTATATTTTTTTTTTTCACACACATTTATATTGTAT [CACACA_site9025]	6.69
TATACTAAGAAGTATTTACACACCAACAAGGCGAAA [CACACA_site8963]	6.32
ATGTTCATTATATGCACACATATATATAAATGTAAT [CACACA_site2908]	10.2
TATCATAAAAAATATACACACAAAGGATATATATAT [CACACA_site1571]	8.18

Sequence	gcPBM binding intensity (ln)
TATATATATTTTATATGTACGTATGGAACAATATGA [XGTACX_site8167]	6.77
TTTTCTATGCTAAACACACTCATTGTTACAAGTTTT [CACACA_site5531]	6.78
TTATTTATTTTTTATACACACAATTATCATTTTAAG [CACACA_site22]	6.82
TGTTGTAAATTAAAGACATGCACGTGAGAAAATATA [TGCATGCA_site285]	11
TTTTCAATTAATAATACACACATGTATTTATTATTA [CACACA_site5774]	6.67
AATTATATACATAAGTGTACATAATATATAAACATA [XGTACX_site793]	6.28
ATATAAAAAAGAGGGAGTACTTGTAACAAAATAATA [XGTACX_site8679]	6.84
GTACAGATGTAGTATGCATGTAATTATATATAAATT [TGCATGCA_site292]	6.91
ACATGTTCATAATTTTGTACATATTTTTATGAACAT [XGTACX_site3976]	6.82
ACGTAGTAGGTATTATGTACATATTTATAAGTATAA [XGTACX_site7336]	6.61
ACATACGAAAATTGGAAGGATAGATAAAAAGAAAAT [CACACA_negctrl_site51]	7.1
TAACTACTAGAAAAAACACACAAAAAGTAAATATAT [CACACA_site2740]	6.81
TTCCCATGTAATATTAAACACACACCCATATAACAC [CACACA_site7905]	7.22
ATTCTAATTACATATACACACAAAGGTTCATAACAA [CACACA_site3076]	6.81
TATATAAATGTATACACACACATATAAATATAAATA [CACACA_site6751]	6.66
ATAAACAGATCATATACATGCATATATGTAGAATAA [TGCATGCA_site157]	6.34
TGATTTTTTTTTTTTTTTTTTTTTTTTTTAGTTTGC [CACACA_negctrl_site1057]	5.74
TGTTTAACATTTATATGTACATATATTCACATATTA [XGTACX_site342]	6.8
TACCAAATCACCCCTTGTACCCATTTTAAAATTTTC [XGTACX_site396]	6.82
TAAAATATAAGACACACACACATATATTTATATATC [CACACA_site6248]	6.9
